Consider 48 compounds from PubChem BioAssay AID1508624 (National Center for Advancing Translational Sciences (NCATS), 2021).

Among all 48,000 compounds or so, about 120 (0.25%) were called active. Inconclusive results (about 4%) are left out. Calls follow the shape of the dose curve; as a rule, active = well fitted activation curve with a large enough effect; inconclusive = small, poorly fitted or top-dose-only effect, or another doubt; inactive = no such curve, though single readings can be large or run the other way. Some of the results follow.

The test can be described thus: Primary qHTS for Identification of Small Molecule Activators of Huntingtin-Antisense Promoter Activity. Also: nearly all actives have a fitted effect of over 55% in size. The note with it: HEK293 HTT-AS promoter firefly luciferase reporter (activity 0% = vehicle and -100% = no light), 24 h; series mostly up to 57.5 µM; activity change, positive = activation: at the top concentration. An outline of the steps:
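Firefly luciferase readout (Dual-Glo, 10 min RT) after 24 h, 37 °C compound exposure (final up to 57.5 uM) of HEK293 reporter cells cultured 24 h beforehand; PTC124 at 50 uM final as control inhibitor; activity scaled vehicle 0%, zero RLU -100%.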
Consider `CC(C)N1CCc2c(sc(NC(=O)c3ccc(S(=O)(=O)N(C)C4CCCCC4)cc3)c2C(N)=O)C1`, for which the “activity change, positive = activation” value was inactive: -19.4%.
To `COCCc1nn2c(=O)cc(COC(=O)c3ccco3)nc2s1` belongs inactive: 10.6%; to `Cc1cccc(-c2nc(CS(=O)CC(=O)NCc3ccc(Cl)cc3)c(C)o2)c1` (stereo not drawn), inactive: -13.5%; to `O=C1CN(C(=O)c2ccc(S(=O)(=O)N3CCCCC3)cc2)C(c2ccc(F)cc2)c2cc(Cl)ccc2N1` (stereo not drawn), inactive: -22.3%.
Next, `O=C(NCCc1ccccc1)c1ccc(CSc2nc3cccnc3n2Cc2ccccc2F)cc1`: inactive: -5.5%; `CCN(CC)CCn1c(=N)n(CCOc2ccccc2Cl)c2ccccc21`: inactive: -24.7%; `CCOC(=O)C(=O)CCc1ccccc1`: inactive: 1.66%.
To `COc1cccc(-c2cn3c(n2)sc2cc(C(=O)NCc4ccccc4F)ccc23)c1` belongs inactive: 29.7%.
On to `CCOC(=O)c1cc(-c2ccccc2)n(CC(=O)NCc2ccc(C)cc2)c1C`, for which the “activity change, positive = activation” value is inactive: -13.8%.
To `Cc1ccc2nc(-c3cccc(NC(=O)c4cccc5c(Cl)cccc45)c3)oc2c1` belongs inactive: 16.9%.
Next, `CCOC(=O)c1c(C)oc2nc(C)nc(NCC3CCN(Cc4ccccc4C)CC3)c12`: inactive: -6.9%; `O=C(NCC(c1cccnc1)N1CCOCC1)C(=O)Nc1ccc(Cl)cc1` (stereo not drawn): inactive: -9.87%.
Next, `COc1ccc(-c2[nH]ncc2C(=O)NCc2cccc(Cl)c2)cc1`: inactive: -17.6%.
Consider `COc1ccc(CNC(=O)CCCN2C(=O)CCn3nc(-c4cn(C)c5ccccc45)cc32)cc1`, for which the “activity change, positive = activation” value was inactive: -28.3%.
To `Cc1c(Cl)cccc1NC(=O)CSc1nc(=O)[nH]c2c1CCCC2` belongs inactive: -26.3%; to `O=C(NCCC1=CCCCC1)C1CCN(C(=O)N2CCOc3ccccc32)CC1`, inactive: -19.6%; to `COc1ccc(OC)c(NC(=O)Cn2ncc3c2-c2ccccc2OC3)c1`, inactive: -22.3%.
In the case of `O=C(NCCc1ccc(Cl)cc1)C1(c2cccs2)CCOCC1`, the “activity change, positive = activation” value is inactive: -22.1%.
To `Cc1ccc(-n2c(=O)c3cccnc3n2CC(=O)Nc2ccc(C)cc2Cl)cc1` belongs inactive: -7.27%; to `CC(=O)Nc1ccc(NC(=O)CSc2cn(CC(=O)N(C(C)C)C(C)C)c3ccccc23)cc1`, inactive: -10.8%.
For the compound `Cc1ccc(-c2noc(CN(C3CCCCC3)S(=O)(=O)c3ccc(F)cc3)n2)cc1`, the “activity change, positive = activation” value is inactive: -30.7%.
Consider `Cc1cc2oc(C(=O)NCCc3ccc(S(N)(=O)=O)cc3)cc(=O)c2cc1C`, for which the “activity change, positive = activation” value is inactive: -9.56%.
As to `COc1cc(C(=O)NCc2nnnn2-c2ccc(C)c(C)c2)cc(OC)c1OC`, the “activity change, positive = activation” value is inactive: -5.92%.
Next, `COc1ccc(OCCn2cc(C(=O)c3ccco3)c3ccccc32)cc1`: inactive: -24.6%; `CCC(=O)N1CCc2cc(S(=O)(=O)NC(Cc3ccccc3)C(=O)NCc3ccc(C)cc3)ccc21` (stereo not drawn): inactive: -10%.
Next, `CCOc1ccccc1CN1C(=O)c2ccccc2C1C(=O)NC1CCCCCC1` (stereo not drawn): inactive: -25.5%.
To `COC(=O)c1cc2occc2n1Cc1nc(-c2ccccc2C)oc1C` belongs inactive: 16.3%; to `CC(C)c1ccc(NC(=O)CSC2=Nc3ccccc3C3=NC(CCC(=O)NCc4ccc(F)cc4)C(=O)N23)cc1` (stereo not drawn), inactive: -38.2%.
Regarding `CCC(C)Sc1nc2c([nH]c3ccccc32)c(=O)n1C` (stereo not drawn), the “activity change, positive = activation” value was inactive: -11.7%.
Next, `Cc1ccccc1COC(=O)c1ccc(-c2nnn(Cc3ccccc3F)n2)cc1`: inactive: 10.2%.
To `CCN1CCN(C(=O)c2ccc3c(c2)N(Cc2c(F)cccc2Cl)C(=O)c2ccccc2S3)CC1` belongs inactive: -16.7%.
To `O=c1c(-c2cc(-c3ccc(F)cc3)nc3c2COc2ccc(Cl)cc2-3)coc2ccc(F)cc12` belongs inactive: -3.42%; to `CC(=O)N1c2ccc(S(=O)(=O)N3CCN(c4cc(Cl)ccc4C)CC3)cc2CC1C` (stereo not drawn), inactive: -5.03%.
Consider `C#C[C@]1(O)CC[C@H]2[C@@H]3CCC4=Cc5oncc5C[C@]4(C)[C@H]3CC[C@@]21C`, for which the “activity change, positive = activation” value was inactive: -33.7%.
With `COc1ccc(CNc2nc(-c3ccco3)nn2S(=O)(=O)c2ccc3ccccc3c2)cc1OC`, the “activity change, positive = activation” value is inactive: -19.5%.
Turning to `Cc1ccc(C)c(NC(=O)Cn2c(=O)n(Cc3nc(C)no3)c(=O)c3cc4c(cc32)OCO4)c1`, the “activity change, positive = activation” value is inactive: -8.68%.
To `CCc1ccc(NC(=O)Cn2c(=O)n(Cc3ccc4c(c3)OCO4)c(=O)c3oc4ccccc4c32)cc1` belongs inactive: -31.6%; to `CCOC(=O)CNC(=O)CC(c1cc(OC)c(OC)c(OC)c1)N1Cc2ccccc2C1=O` (stereo not drawn), inactive: -6.79%; to `CC(=O)SCC(CC(=O)c1ccc(C)cc1)C(=O)O` (stereo not drawn), inactive: 16.3%.
To `CCOC(=O)c1ccc(NC(=O)CCn2c(=O)oc3ccccc32)cc1` belongs inactive: -17.2%; to `CCN(CC)c1ccc(C(=O)Nc2ccc3nc(N(CC)CC)cc(C)c3c2)cc1`, inactive: -30.9%.
To `Cc1ccc2[nH]c(CSc3nnc(NC(=O)COc4ccccc4Cl)s3)cc(=O)c2c1` belongs inactive: -19.1%.
Turning to `CN(Cc1ccccc1)C(=O)Cn1c(=O)c2cccn2c2ccc(F)cc21`, the “activity change, positive = activation” value is inactive: 8.41%.
Next, `CCc1ccc(NC(=O)C2CCCN(S(=O)(=O)c3cccc4cccnc34)C2)cc1` (stereo not drawn): inactive: -19.5%; `Cc1ccc(CNC(=O)c2sc3ncnc(N(C)C4CCCCC4)c3c2C)cc1`: inactive: -27.3%.
To `O=S(=O)(NCC(c1ccco1)N1CCOCC1)c1ccc(Cl)cc1` (stereo not drawn) belongs inactive: -10.6%; to `Cc1ccccc1NC(=O)C1CCN(S(=O)(=O)c2ccccc2)CC1`, inactive: -18.3%.
To `O=C(CCCCCn1c(=O)[nH]c2ccccc2c1=O)N1CCN(c2ccc(Cl)cc2)CC1` belongs inactive: -0.343%.
